In a collection of fitness landscapes (doi:10.1016/j.celrep.2020.107928):
Over roughly 81,000 sequences, “one-hybrid fitness for binding parS DNA” has its median near -0.17; the highest 2% begin near 0.51. The list shows a part of the results.

B1: Caulobacter ParB omega fusion; a variant is named by its letters at X, in order, B8GW30 (parent)
chain: MESVVVGEPGMSEGRRGLGRGLSALLGEVDAAPAQAPGEQLGGSREAPIEILQRNPDQPRRTFREEDLEDLSNSIREKGVLQPILVRPSPDTAGEYQIVAGERAWRAAQRAGLKTVPIMVRELDDLAVLEIGIIENVQRADLNVLEEALSYKVLMEKFERTQENIAQTIGKSXSHVANXMRLLXLPDEVQSYLVSGELTAXHARAIAAAADPVALAKQIIEGGLSVRETEALARKAPNLSAGKSKGGRPPRVKDTDTQALESDLSSVLGLDVSIDHRGSTGTLTITYATLEQLDDLCNRLTRGI

Variants of: B1
Test: one-hybrid fitness for binding parS DNA (scaled: cognate 1, non-cognate 0); higher = stronger binding
Details: with parS DNA site
Outline: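 On M9-minus-histidine containing 0.1 mM IPTG and 5 mM 3-AT, E. coli USO cells with a HIS3 reporter, site 19 bp from the promoter, grew 48 hours at 37°C to select Caulobacter ParB libraries randomised at four specificity codons. Plasmids from before and after were Illumina-sequenced, with three replicate libraries pooled and variants under 10 reads left out. Fitness is the log change in variant-to-wild-type read ratio, rescaled against cognate and non-cognate.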

Variant	one-hybrid fitness for binding parS DNA
QVIF	≤ 0.2
LEVL	≤ 0.2
PSAY	≤ 0.2
TCTF	≤ 0.2
TNDS	≤ 0.2
RQYH	≤ 0.2
PVGP	≤ 0.2
TTML	≤ 0.2
LWPT	≤ 0.2
HFSI	≤ 0.2
VQRG	≤ 0.2
RECS	≤ 0.2
RVAV	≤ 0.2
TNCS	≤ 0.2
RTNR	≤ 0.2
AWPR	≤ 0.2
SKNN	≤ 0.2
TVIY	≤ 0.2
CVVT	≤ 0.2
NSYL	≤ 0.2
RLKK	≤ 0.2
SLSY	≤ 0.2
AWLT	≤ 0.2
NCHS	≤ 0.2

Variant	one-hybrid fitness for binding parS DNA
DLPT	≤ 0.2
YSYP	≤ 0.2
FYTN	≤ 0.2
GTSF	≤ 0.2
GIAC	≤ 0.2
STLC	≤ 0.2
WDTC	≤ 0.2
TAFA	≤ 0.2
CECS	≤ 0.2
CLRR	≤ 0.2
QFSA	≤ 0.2
TWGS	≤ 0.2
DSES	≤ 0.2
EAPN	≤ 0.2
ECQS	≤ 0.2
RGSD	≤ 0.2
YAGS	≤ 0.2
ATFF	≤ 0.2
LARK	≤ 0.2
QRDH	≤ 0.2
HNCC	≤ 0.2
SRSA	≤ 0.2
GDKC	≤ 0.2
VPTY	≤ 0.2

Variant	one-hybrid fitness for binding parS DNA
RFLR	≤ 0.2
TSCY	≤ 0.2
QTLI	≤ 0.2
SCLC	≤ 0.2
KTYK	≤ 0.2
QQDN	≤ 0.2
SGTR	≤ 0.2
SRPR	≤ 0.2
VFPT	≤ 0.2
RNRW	0.24
ESAP	≤ 0.2
PSDA	≤ 0.2
VVTY	≤ 0.2
NALR	≤ 0.2
INYC	≤ 0.2
DTWV	≤ 0.2
TNPF	≤ 0.2
FGLC	≤ 0.2
TVGV	≤ 0.2
TLGW	≤ 0.2
DAMY	≤ 0.2
TTVT	≤ 0.2
VDLC	≤ 0.2
DIRG	≤ 0.2

Variant	one-hybrid fitness for binding parS DNA
RGKP	≤ 0.2
WNHR	≤ 0.2
SYAR	≤ 0.2
WQWS	≤ 0.2
QCTE	≤ 0.2
FDRC	≤ 0.2
SRVS	≤ 0.2
GSRC	≤ 0.2
RLQC	0.998
TKGP	≤ 0.2
SNSN	≤ 0.2
YFGG	≤ 0.2
ATER	≤ 0.2
LGNT	≤ 0.2
AVCS	≤ 0.2
NQPQ	≤ 0.2
KNTS	≤ 0.2
TITW	≤ 0.2
RWFL	≤ 0.2
HSDT	≤ 0.2
QWDK	≤ 0.2
HGTV	≤ 0.2
HEKC	≤ 0.2
HQGC	≤ 0.2

Variant	one-hybrid fitness for binding parS DNA
RVTF	0.202
THPE	≤ 0.2
PFFR	≤ 0.2
TGIA	≤ 0.2
FLPY	≤ 0.2
HFRW	≤ 0.2
YGTG	≤ 0.2
VSKA	≤ 0.2
PSQC	≤ 0.2
QMFE	≤ 0.2
THRL	≤ 0.2
TKEA	≤ 0.2
PYSS	≤ 0.2
LSDS	≤ 0.2
NHCL	≤ 0.2
QSLF	≤ 0.2
AAII	≤ 0.2
IPST	≤ 0.2
DAEG	≤ 0.2
NYPV	≤ 0.2
LDLR	≤ 0.2
VQSH	≤ 0.2
QAPT	≤ 0.2
PPRL	≤ 0.2

Variant	one-hybrid fitness for binding parS DNA
YASC	≤ 0.2
CLPV	≤ 0.2
RTNG	0.968
DRIA	≤ 0.2
DWTG	≤ 0.2
SCMT	≤ 0.2
PHSY	≤ 0.2
AQCN	≤ 0.2
QVPP	≤ 0.2
VGTA	≤ 0.2
QQHL	≤ 0.2
QPDF	≤ 0.2
QVHW	≤ 0.2
FSKR	≤ 0.2
ECSG	≤ 0.2
LVNW	≤ 0.2
TQFT	≤ 0.2
NVSM	≤ 0.2
CEYG	≤ 0.2
QTRR	≤ 0.2
DRVG	≤ 0.2
FAVR	≤ 0.2
KDKK	≤ 0.2
WTRI	≤ 0.2

Variant	one-hybrid fitness for binding parS DNA
SGTE	≤ 0.2
DGCS	≤ 0.2
PCLC	≤ 0.2
STFK	≤ 0.2
YRNR	≤ 0.2
SNYV	≤ 0.2
LRVE	≤ 0.2
GDTA	≤ 0.2
RKFN	0.295
HKNS	≤ 0.2
CPSY	≤ 0.2
RNEM	≤ 0.2
TAHV	≤ 0.2
EQVG	≤ 0.2
RDNT	≤ 0.2
QKTI	≤ 0.2
AYPI	≤ 0.2
VEHV	≤ 0.2
KKRV	≤ 0.2
HAGW	≤ 0.2
CGWR	≤ 0.2
KRIA	≤ 0.2
NVHW	≤ 0.2
FMKR	≤ 0.2

Variant	one-hybrid fitness for binding parS DNA
HDQG	≤ 0.2
STYP	≤ 0.2
KVMS	≤ 0.2
TDKS	≤ 0.2
PASN	≤ 0.2
RILV	≤ 0.2
QAGE	≤ 0.2
FMNF	≤ 0.2
ADSI	≤ 0.2
LTLS	≤ 0.2
AGPV	≤ 0.2
AHIL	≤ 0.2
ALPC	≤ 0.2
RQEH	0.281
TKQR	≤ 0.2
ESHV	≤ 0.2
HAPH	≤ 0.2
HFGL	≤ 0.2
QLEI	≤ 0.2
AGWP	≤ 0.2
IVVL	≤ 0.2
DTHY	≤ 0.2
PRIQ	≤ 0.2
AAAN	≤ 0.2

Variant	one-hybrid fitness for binding parS DNA
MGFR	≤ 0.2
GRYR	≤ 0.2
RRIC	0.71
EDHT	≤ 0.2
EKIT	≤ 0.2
SPGM	≤ 0.2
QTSS	≤ 0.2
RPNM	≤ 0.2
LHMY	≤ 0.2
GQRY	≤ 0.2
RVGY	0.438
CFTG	≤ 0.2
SVRG	≤ 0.2
AHAG	≤ 0.2
VFFS	≤ 0.2
CENL	≤ 0.2
SCYT	≤ 0.2
CKHS	≤ 0.2
CTLR	≤ 0.2
CQIC	≤ 0.2
SIFM	≤ 0.2
GPMG	≤ 0.2
GSPW	≤ 0.2
QNEY	≤ 0.2

Variant	one-hybrid fitness for binding parS DNA
HCID	≤ 0.2
YNGR	≤ 0.2
PQNC	≤ 0.2
FVKT	≤ 0.2
VACC	≤ 0.2
LICT	≤ 0.2
ICGG	≤ 0.2
QDSQ	≤ 0.2
SEPV	≤ 0.2
HSVS	≤ 0.2
VHRG	≤ 0.2
FAKG	≤ 0.2
RKWG	0.952
RCLQ	≤ 0.2
KEKV	≤ 0.2
YNIR	≤ 0.2
MDIE	≤ 0.2
WTVG	≤ 0.2
QWWL	≤ 0.2
QMQS	≤ 0.2
VFVG	≤ 0.2
PTVL	≤ 0.2
QYDT	≤ 0.2
TRCF	≤ 0.2

Variant	one-hybrid fitness for binding parS DNA
TPCS	≤ 0.2
RFET	0.655
LASR	≤ 0.2
SQTG	≤ 0.2
RHQC	0.951
WALI	≤ 0.2
PRRV	≤ 0.2
HNKV	≤ 0.2
YPVT	≤ 0.2
KYTW	≤ 0.2
YKKI	≤ 0.2
ASTQ	≤ 0.2
CFYR	≤ 0.2
RMVE	≤ 0.2
ATDF	≤ 0.2
LAPI	≤ 0.2
GMHR	≤ 0.2
HSEN	≤ 0.2
PKRI	≤ 0.2
PFMF	≤ 0.2
INSR	≤ 0.2
NKDR	≤ 0.2
PHLW	≤ 0.2
VVTF	≤ 0.2

Variant	one-hybrid fitness for binding parS DNA
VWFR	≤ 0.2
KNML	≤ 0.2
NDNF	≤ 0.2
WPQR	≤ 0.2
RSFP	≤ 0.2
PRFG	≤ 0.2
AYRN	≤ 0.2
DRHM	≤ 0.2
PIHT	≤ 0.2
QWHF	≤ 0.2
PPVI	≤ 0.2
LRCE	≤ 0.2
QHHV	≤ 0.2
FAVT	≤ 0.2
LPAR	≤ 0.2
HAQT	≤ 0.2
TSWT	≤ 0.2
RSAD	≤ 0.2
VPGM	≤ 0.2
PIDS	≤ 0.2
QSGF	≤ 0.2
AAEG	≤ 0.2
QMHK	≤ 0.2
LMIW	≤ 0.2

Variant	one-hybrid fitness for binding parS DNA
NCFV	≤ 0.2
MVKC	≤ 0.2
VGLD	≤ 0.2
PAWH	≤ 0.2
WRPI	≤ 0.2
PIMC	≤ 0.2
CGYD	≤ 0.2
IPVF	≤ 0.2
CACG	≤ 0.2
LPTY	≤ 0.2
QPIR	≤ 0.2
EYAI	≤ 0.2
PKWN	≤ 0.2
RMWY	0.497
TPDF	≤ 0.2
QWMV	≤ 0.2
ADLR	≤ 0.2
DLTS	≤ 0.2
